Experimental data reported in the supplement of paper PMC3334620.
Over roughly 33,000 sequences, “E-score (-0.5 to 0.5)” has its median near -0.036; the highest 2% begin near 0.37. This is one part of the list.

molecular target: T1, Yer064c (UniProt P40041); assay: PBM E-score (8-mer binding enrichment) (E-score (-0.5 to 0.5)); higher = stronger / more preferred TF binding; most listed sequences are background and not binding sites; details: protein concentration: 200 nM; construct: GST-full length
T1 sequence: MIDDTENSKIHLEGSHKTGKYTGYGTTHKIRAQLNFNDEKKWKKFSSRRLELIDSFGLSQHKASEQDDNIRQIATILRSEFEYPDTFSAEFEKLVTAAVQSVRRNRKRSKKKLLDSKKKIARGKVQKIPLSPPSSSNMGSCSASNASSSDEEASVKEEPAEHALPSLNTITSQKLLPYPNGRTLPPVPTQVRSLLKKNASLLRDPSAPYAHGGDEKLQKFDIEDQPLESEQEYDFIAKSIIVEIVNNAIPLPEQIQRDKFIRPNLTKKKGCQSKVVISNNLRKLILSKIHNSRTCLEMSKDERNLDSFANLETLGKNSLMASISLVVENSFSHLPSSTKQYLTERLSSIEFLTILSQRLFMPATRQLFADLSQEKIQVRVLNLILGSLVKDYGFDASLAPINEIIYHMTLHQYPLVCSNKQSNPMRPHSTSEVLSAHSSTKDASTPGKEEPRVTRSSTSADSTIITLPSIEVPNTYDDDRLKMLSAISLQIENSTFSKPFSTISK
Method in brief: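 Each ungapped eight-base word and its reverse complement, pooled, received an E-score from the Universal PBM Analysis Suite. Underlying scans, normalised with masliner, recorded fluorescent anti-GST bound to GST-tagged yeast transcription factors. These were applied at about 100-200 nM to universal all-10-mer Agilent arrays double-stranded by primer extension.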

Row | Sequence | PBM E-score
1 | AGTGTGAA | 0.00721
2 | AAAGAGAC | 0.207
3 | ATGCATCG | 0.0512
4 | ACGGCGAC | -0.0704
5 | AATTTAGG | 0.0377
6 | AAGCATAA | -0.156
7 | ACTCCGGC | 0.0223
8 | GATGCTAA | -0.0719
9 | ATCGTAGC | -0.00313
10 | GACAACTA | 0.0328
11 | CGTAGGCC | -0.213
12 | GCCCTCGA | -0.143
13 | AGCGTATC | -0.202
14 | ACGAGCCT | -0.11
15 | CTACCCTC | -0.0486
16 | ACCAGCAA | 0.0287
17 | AGCTAGAC | -0.19
18 | GATTGGCA | 0.00543
19 | TCAATCCA | 0.0873
20 | GCACCCAA | -0.168
21 | ATGGGTTG | 0.0482
22 | CTAAGCAG | 0.122
23 | GTCATGTA | 0.259
24 | GCGATCAA | 0.0568
25 | ATGAGATA | 0.0605

Row | Sequence | PBM E-score
26 | CCGGTCCG | 0.0504
27 | TCCGAGGA | 0.0764
28 | CCCGTCTC | -0.27
29 | GGACTTAC | 0.0485
30 | CTAGTCGC | 0.316
31 | CTAGACAA | -0.0709
32 | CAGGAACA | -0.157
33 | ACAGCAAG | -0.259
34 | ACGGCCCC | -0.194
35 | AGGGGGGC | -0.351
36 | GAAGCGGC | -0.368
37 | AACTAGCC | -0.154
38 | GACGTGAA | 0.00076
39 | ATTTACAA | 0.107
40 | ATAACTTG | 0.0525
41 | TCCGTCAA | -0.0923
42 | AATAACCG | -0.0174
43 | AATTTCAG | 0.0274
44 | CCTTGCCC | -0.195
45 | AAAACTTA | 0.118
46 | AGCCAAGG | 0.0335
47 | TACATATA | 0.0992
48 | TCACAGGA | 0.0693
49 | CCATCTTC | 0.0581
50 | TGTTGTAA | 0.06

Row | Sequence | PBM E-score
51 | AGACTAGA | 0.276
52 | ACACCAAC | -0.0121
53 | GGTCCGAA | 0.0476
54 | ACGCTACA | -0.115
55 | GCGGAACC | -0.0134
56 | CAACGTGA | 0.102
57 | CCGCGCCG | -0.274
58 | CCCGAGTC | 0.329
59 | ATGATGCG | 0.128
60 | TACGTTCA | -0.0621
61 | CACACCAC | 0.091
62 | AATCCTTC | -0.0208
63 | ATGCGCGG | -0.268
64 | AAACTGCG | -0.212
65 | GTTTGTTA | 0.052
66 | ATTGATCG | -0.0674
67 | ATGGCAGA | -0.129
68 | CACGTACG | -0.0537
69 | AGACGGTC | -0.274
70 | TGAGAGAA | -0.00978
71 | ATAGCGAA | 0.126
72 | GTCACAGA | 0.237
73 | CAACTCGC | 0.0528
74 | CCCTCTAA | -0.0587
75 | ACCTAGAT | -0.19

Row | Sequence | PBM E-score
76 | CGTCCGTA | 0.0167
77 | CAACAATC | 0.117
78 | CTTGTCCA | 0.0431
79 | CTTATTTA | 0.074
80 | TAGGCCGA | -0.14
81 | GCACCGGA | -0.24
82 | CCAATACC | -0.227
83 | AAAAGGTC | -0.0734
84 | CAACATGC | -0.0143
85 | CTGTTTTA | 0.0684
86 | CGAGTGGA | -0.0321
87 | CGGCGCGC | -0.0871
88 | ATCCAAAC | 0.00765
89 | AGATTCAC | 0.291
90 | AACCAGCC | 0.141
91 | ACGTGTTC | -0.0863
92 | TACGCTAA | 0.0764
93 | TATATGGA | 0.105
94 | CAAAAAAA | 0.123
95 | CATCAGCG | 0.138
96 | AGTTCCAC | -0.0556
97 | ACCTTCCT | -0.248
98 | CCGTAGAC | -0.0459
99 | AACCCCTC | -0.221
100 | CAATAACG | -0.0089

Row | Sequence | PBM E-score
101 | CCCGATAA | 0.0733
102 | TCTGTGAA | 0.13
103 | CCAAGTGG | 0.0141
104 | TATATTCA | 0.0968
105 | GTATTGCA | -0.0498
106 | CGCTCGGA | -0.0666
107 | CAGTTATA | 0.0662
108 | TAGTACCA | -0.0385
109 | AGTCGACG | 0.303
110 | AGAGCACC | -0.336
111 | TGGCGCAA | -0.15
112 | GCCGTGAA | -0.0403
113 | ATTAACTC | 0.255
114 | GGTGTCTA | 0.125
115 | GGGTGAAA | 0.0843
116 | AGATTAAG | 0.245
117 | AGGGTAGC | -0.211
118 | AGCCGAGC | -0.149
119 | ATATCTCG | -0.225
120 | CATGCGTC | 0.0649
121 | CGGTATGA | 0.205
122 | GAGCGTCA | -0.0316
123 | GAGCGAAC | 0.132
124 | TCAATACA | 0.0716
125 | ATAACACC | -0.0883

Row | Sequence | PBM E-score
126 | GTGTGCTA | -0.0763
127 | AGCGAGTG | 0.0737
128 | AATGAAAG | -0.0138
129 | AAGAGTCA | 0.489
130 | CCTAGAGG | -0.175
131 | AAGTTACT | 0.237
132 | GTTGACCA | 0.00753
133 | ACTATACC | 0.0601
134 | CGTACGGA | -0.0695
135 | ATAAGCAG | -0.0252
136 | ACCCGGGC | -0.0621
137 | CGCGCGCA | -0.0205
138 | ATCCTCGC | -0.043
139 | GCACGTCC | -0.279
140 | AACGGGAC | -0.167
141 | TGTTCTAA | -0.131
142 | CACCCCGA | 0.0217
143 | ACGAGAAG | -0.128
144 | GTAGGATA | -0.0167
145 | CTAGTACC | -0.00175
146 | TAAGCATA | -0.0649
147 | ATGAAGTC | 0.281
148 | AATCCACG | -0.0812
149 | AAATGGTT | 0.194
150 | AATATAAC | -0.0931

Row | Sequence | PBM E-score
151 | CGCCCGAC | -0.0703
152 | ATGGGCCA | -0.207
153 | CAGTCCAA | 0.0519
154 | ACACGAGA | -0.115
155 | ACCGAAAG | -0.0221
156 | CATACTCG | -0.024
157 | AGACAGCA | -0.00915
158 | TACTACAA | 0.119
159 | AAGTGTTA | -0.0254
160 | ACATAAAC | 0.0827
161 | AGCGGACA | -0.188
162 | ATTAACGC | 0.00813
163 | TCGCCAGA | 0.102
164 | AATAAACC | 0.0322
165 | CTACTCGA | 0.211
166 | AATTAGCA | 0.00425
167 | TCACCGAA | 0.218
168 | ACGTGATA | -0.115
169 | AAAAAAGA | 0.00554
170 | CCTGGACA | -0.127
171 | GTGGTGAA | -0.0751
172 | TGCAACCA | -0.0203
